# Experimental data taken from the supplement of paper PMC8728848.
# The other results are listed elsewhere or left out.
# Experiments:
# Test in all cases: glycan array binding signal (z-score within array); higher = stronger binding
# Conditions in all cases: glycan notation: IUPAC condensed, linker removed
# [1] = biological target: Gal3S(b1-4)Glc
# Summary of the method: (§1)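 Glycan array binding is given as a within-array Z-score, which can be read as non-binding when negative. The arrays, 3228 of them, came from the Consortium for Functional Glycomics database and were retained only where the protein sequence was available. Z-scores were averaged across arrays of the same protein sequence at different concentrations or buffers and across linkers.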
# [2] = biological target: Gal3S(b1-4)Glc6S
# Summary of the method: as §1
# [3] = biological target: Gal3S(b1-4)GlcNAc
# Summary of the method: as §1
# [4] = biological target: Gal3S(b1-4)GlcNAc6S
# Summary of the method: as §1
# [5] = biological target: Gal3S6S(b1-4)GlcNAc
# Summary of the method: as §1
# [6] = biological target: Gal3S6S(b1-4)GlcNAc6S
# Summary of the method: as §1
# [7] = biological target: Gal4S(b1-4)GlcNAc
# Summary of the method: as §1
# [8] = biological target: Gal4S6S(b1-4)GlcNAc
# Summary of the method: as §1
# [9] = biological target: Gal6S(b1-4)Glc
# Summary of the method: as §1
# [10] = biological target: Gal6S(b1-4)Glc6S
# Summary of the method: as §1
# [11] = biological target: Gal6S(b1-4)GlcNAc
# Summary of the method: as §1
# [12] = biological target: GalNAc(a1-3)Gal
# Summary of the method: as §1
# [13] = biological target: GalNAc(a1-3)GalNAc
# Summary of the method: as §1
# [14] = biological target: GalNAc(b1-3)Gal(a1-4)Gal(b1-4)GlcNAc
# Summary of the method: as §1
# [15] = biological target: GalNAc(b1-4)GlcNAc
# Summary of the method: as §1
# [16] = biological target: Glc(a1-4)Glc
# Summary of the method: as §1
# [17] = biological target: Glc(a1-6)Glc(a1-6)Glc
# Summary of the method: as §1
# [18] = biological target: Glc(b1-4)Glc
# Summary of the method: as §1
# [19] = biological target: Glc(b1-6)Glc
# Summary of the method: as §1
# [20] = biological target: GlcA(b1-3)Gal
# Summary of the method: as §1
# [21] = biological target: GlcA(b1-6)Gal
# Summary of the method: as §1
# [22] = biological target: GlcNAc(a1-3)Gal(b1-4)GlcNAc
# Summary of the method: as §1
# [23] = biological target: GlcNAc(a1-6)Gal(b1-4)GlcNAc
# Summary of the method: as §1
# [24] = biological target: GlcNAc(b1-2)Gal(b1-3)GlcNAc
# Summary of the method: as §1
# [25] = biological target: GlcNAc(b1-2)Man(a1-3)[GlcNAc(b1-2)Man(a1-6)]Man(b1-4)GlcNAc(b1-4)GlcNAc
# Summary of the method: as §1
# [26] = biological target: GlcNAc(b1-3)Gal
# Summary of the method: as §1
# [27] = biological target: GlcNAc(b1-3)Gal(b1-3)GalNAc
# Summary of the method: as §1
# [28] = biological target: GlcNAc(b1-3)Gal(b1-4)Glc
# Summary of the method: as §1
# [29] = biological target: GlcNAc(b1-3)Gal(b1-4)GlcNAc
# Summary of the method: as §1
# [30] = biological target: GlcNAc(b1-3)Gal(b1-4)GlcNAc(b1-3)Gal(b1-4)GlcNAc
# Summary of the method: as §1
# [31] = biological target: GlcNAc(b1-3)GalNAc
# Summary of the method: as §1
# [32] = biological target: GlcNAc(b1-3)[GlcNAc(b1-4)][GlcNAc(b1-6)]GlcNAc
# Summary of the method: as §1
# [33] = biological target: GlcNAc(b1-3)[GlcNAc(b1-6)]Gal(b1-4)GlcNAc
# Summary of the method: as §1
# [34] = biological target: GlcNAc(b1-3)[GlcNAc(b1-6)]GlcNAc
# Summary of the method: as §1
# [35] = biological target: GlcNAc(b1-4)Gal(b1-4)GlcNAc
# Summary of the method: as §1
# [36] = biological target: GlcNAc(b1-4)GlcNAc(b1-4)GlcNAc
# Summary of the method: as §1
# [37] = biological target: GlcNAc(b1-4)GlcNAc(b1-4)GlcNAc(b1-4)GlcNAc(b1-4)GlcNAc
# Summary of the method: as §1
binder,measurement,setting,value
STA (Solanum tuberosum) (protein) NASAPLPYPQCGLKKGGGKCIKTGECCSIWGWCGTTSDYCAPGYCQKQCPGPYPQGRCGWQANGKSCPTGTGQCCSNAGWCGTTSDYCAPNNCQSQCKLPPPPPSPPPPPPSPPPPSPPPPPPSPPPPSPSPPPPPPSPPPPSPPPPSPPPPSPPPPPSPSPPPPPPSPPPPPPPLPYPQCGMKKGGGKCIKTGECCSIWGWCGTTSKYCSPGYCQMQCPDPYPEGRCGWQANGKSCPTGTGQCCSNAGWCGTTSAYCAPVNCQAQCNTTTLTSPIKNRMRGIESFMLNVV,glycan array binding signal (z-score),[1],-0.501
same,glycan array binding signal (z-score),[2],-0.472
same,glycan array binding signal (z-score),[3],2.55
same,glycan array binding signal (z-score),[4],2.58
same,glycan array binding signal (z-score),[5],-0.475
same,glycan array binding signal (z-score),[6],-0.414
same,glycan array binding signal (z-score),[7],3.08
same,glycan array binding signal (z-score),[8],-0.483
same,glycan array binding signal (z-score),[9],-0.495
same,glycan array binding signal (z-score),[10],-0.493
same,glycan array binding signal (z-score),[11],-0.479
same,glycan array binding signal (z-score),[12],-0.079
same,glycan array binding signal (z-score),[13],-0.507
same,glycan array binding signal (z-score),[14],2.05
same,glycan array binding signal (z-score),[15],2.02
same,glycan array binding signal (z-score),[16],-0.501
same,glycan array binding signal (z-score),[17],-0.51
same,glycan array binding signal (z-score),[18],-0.513
same,glycan array binding signal (z-score),[19],-0.512
same,glycan array binding signal (z-score),[20],-0.51
same,glycan array binding signal (z-score),[21],-0.504
same,glycan array binding signal (z-score),[22],2.22
same,glycan array binding signal (z-score),[23],-0.463
same,glycan array binding signal (z-score),[24],-0.506
same,glycan array binding signal (z-score),[25],-0.331
same,glycan array binding signal (z-score),[26],-0.504
same,glycan array binding signal (z-score),[27],-0.481
same,glycan array binding signal (z-score),[28],-0.502
same,glycan array binding signal (z-score),[29],1.24
same,glycan array binding signal (z-score),[30],1.75
same,glycan array binding signal (z-score),[31],-0.508
same,glycan array binding signal (z-score),[32],-0.491
same,glycan array binding signal (z-score),[33],2.63
same,glycan array binding signal (z-score),[34],-0.269
same,glycan array binding signal (z-score),[35],2.38
same,glycan array binding signal (z-score),[36],2.13
same,glycan array binding signal (z-score),[37],2.23
